The whole screen tested about 52,000 compounds, of which about 4,300 (8.3%) were called active. No stated cut-off is given here; in the data, active means survival mostly below about 52% (no sharp cut-off); inactive means mostly above about 56%. This is one part of the list.
Tested on: DeltatarO mutant
Test: growth inhibition of S. aureus wild type versus tarO mutant, primary screen, teichoic acid synthesis inhibitors, RN4220, OD600 (AID 463173)
Conditions: OD600, 18 h, active compounds read low, screened at 18.75 µg/mL (by protocol)

SMILES | survival
CCc1ccccc1NC(=O)Cn1c2ncccc2c(=O)n1-c1ccccc1 | inactive: 100%
COc1ccc(Cn2ccc3nc(C)c(C(=O)NCc4cccc(OC)c4)cc3c2=O)cc1 | inactive: 94%
Cc1ccc(-n2nc3c(=O)n(CC(=O)NCC(C)c4ccccc4)nc(C)c3c2C)cc1 (stereo unspecified) | inactive: 73%
CC(=O)Nc1ccc(NC(=O)CC2C(=O)Nc3ccccc3N2C(C)=O)cc1 (stereo unspecified) | inactive: 98%
Cc1ccc(-n2nc3c(N4CCC(C(=O)NCc5ccccc5Cl)CC4)nnc(C)c3c2C)cc1 | inactive: 116%
CC(=O)c1ccc(NC(=O)CCOc2ccccc2)cc1 | inactive: 146%
COc1ccc(OC)c(S(=O)(=O)NCCc2csc(-c3cccc(F)c3)n2)c1 | inactive: 102%
CCOC(=O)c1c(C)[nH]c(C)c1S(=O)(=O)NCC(=O)N1CCN(c2ccccc2OC)CC1 | inactive: 102%
CCN(CC)C(=O)Nc1ccc2c(c1)N(Cc1ccccc1)C(=O)c1ccccc1S2 | inactive: 60%
Cc1ccc(N(C)C(=O)c2cc(S(=O)(=O)N3CCOCC3)cn2C)cc1 | inactive: 92%
CCCN(Cc1cccs1)C(=O)Nc1cc(OC)ccc1OC | inactive: 58%
COc1ccc(CCNC(=O)CCCCn2c(=O)c3ccccc3n(Cc3ccccc3Cl)c2=O)cc1OC | inactive: 88%
COc1ccccc1-c1noc(CCCC(=O)Nc2cc(C)ccc2C)n1 | inactive: 54%
COc1ccc(C(=O)Nc2ccc(C(=O)OCc3cc(=O)n4nc(C5CC5)sc4n3)cc2)cc1 | active: -1%
CC(C)C(OC(=O)c1cccs1)C(=O)NC1CCCC1 (stereo unspecified) | inactive: 96%
COc1ccc(N(C(=O)/C=C\C(=O)Nc2ccc(C)cc2)C(C(=O)NCc2ccco2)c2ccc(C)cc2)cc1 (stereo unspecified) | inactive: 88%
CCCn1c(=NC(=O)c2cc3ccccc3o2)c(C(=O)OCC)cc2c(=O)n3ccccc3nc21 | active: 27%
O=C(Cn1ncc2ccsc2c1=O)N1CCN(c2ccccc2F)CC1 | inactive: 94%
O=S(=O)(c1ccc(-n2cnnn2)cc1)N1CCN(c2cccc(Cl)c2)CC1 | inactive: 76%
Cc1c(C(=O)N2CCCCCC2)c(S(=O)(=O)N(Cc2ccccc2)C(C)(C)C)c(C)n1C | inactive: 99%
CCc1cccc(C)c1NC(=O)CN1CCCN(Cc2ccccc2Cl)S1(=O)=O | inactive: 55%
COc1cc(C2c3c(-c4ccccc4O)n[nH]c3C(=O)N2Cc2ccco2)ccc1OCC(C)C (stereo unspecified) | active: 7%
CCOc1ccccc1NC(=O)C(CC)n1c(C(=O)OC)cc2occc21 (stereo unspecified) | active: -4%

SMILES | survival
Cc1csc(N/N=C\CCc2ccccc2)n1 | inactive: 98%
Cc1ccc(NC(=O)CN(C)S(=O)(=O)c2cnc[nH]2)cc1 | inactive: 102%
COc1ccccc1OCC(=O)NCC(c1ccc(Cl)cc1)N1CCOCC1 (stereo unspecified) | inactive: 67%
Cc1ccc(C)c(CN2C(=O)c3ccccc3S(=O)c3ccc(C(=O)N4CCN(c5cccc(Cl)c5)CC4)cc32)c1 (stereo unspecified) | inactive: 116%
Cc1ccc(NC(=O)Cn2c(=O)n(CCCCC(=O)NCc3ccccc3Cl)c(=O)c3ccccc32)cc1 | inactive: 83%
Cc1cc2ncn(S(=O)(=O)c3ccc(S(N)(=O)=O)cc3)c2cc1C | inactive: 84%
CCCc1nn2c(=O)cc(COc3ccc(/C=C(\C#N)C(=O)Nc4ccccc4)cc3)nc2s1 | inactive: 66%
CC(C)CC(=O)NC1(C(F)(F)F)C(=O)Nc2c1c(=O)[nH]c(=O)n2-c1ccccc1 (stereo unspecified) | inactive: 182%
N=C(N)N1CCN(CC(O)COc2ccccc2)CC1 (stereo unspecified) | inactive: 84%
NC1CCC(c2ccccc2)CC1 (stereo unspecified) | inactive: 78%
Cc1ccc(-n2c(=O)c3cccnc3n2CC(=O)Nc2cc(Cl)ccc2C)cc1 | inactive: 123%
O=c1cc(-c2ccccc2)n2c(SCc3c(F)cccc3Cl)nnc2[nH]1 | inactive: 71%
COc1ccc(CSc2nc3ccncc3n2CC(=O)Nc2ccc(C)c(F)c2)cc1 | inactive: 85%
CCc1ccccc1NC(=O)Cn1c(=O)n(-c2ccc(CC(=O)NCC3CCCO3)cc2)c(=O)c2ccccc21 (stereo unspecified) | inactive: 96%
Cc1ccccc1C(=O)Nc1ccc2nc(SCC(=O)N3CCc4ccccc43)sc2c1 | inactive: 106%
COc1ccc(CNC(=O)c2ccc3c(c2)N(Cc2ccc(C)cc2)CCS3)cc1 | inactive: 71%
CCOC(=O)c1cnc2nc(NCc3cccc(Br)c3)[nH]n2c1=O | inactive: 86%
CC(C)=NOC1=NS(=O)(=O)c2ccccc21 | inactive: 92%
COc1ccccc1CNS(=O)(=O)c1ccc(-c2cnc(C3CC3)o2)cc1 | inactive: 75%
Cn1ccc2c(OCC(=O)NCc3ccccc3)cccc2c1=O | inactive: 100%
COCCNC(=O)c1c[nH]c2ccc(S(=O)(=O)Nc3ccc(F)cc3F)cc2c1=O | inactive: 98%
CC(C)c1nn2c(=O)cc(COC(=O)c3cccc(NC(=O)c4cccs4)c3)nc2s1 | inactive: 70%
CCCOc1ccc(-c2nonc2NC(=O)c2cc(OC)c(OC)c(OC)c2)cc1OCCC | inactive: 84%

SMILES | survival
CCc1ccc(C2=NN(CCC(=O)NCCc3ccc(OC)c(OC)c3)C(=O)CC2)cc1 | inactive: 88%
O=C(c1cc2ccccc2oc1=O)N(Cc1cccs1)Cc1cccs1 | inactive: 48%
Cc1ccc(N2CC(NC(=O)c3cc4ccccc4o3)CC2=O)cc1C (stereo unspecified) | inactive: 102%
Clc1ccc(-c2nc3c4cnn(-c5ccccc5Br)c4ncn3n2)c(Cl)c1 | inactive: 77%
COC(=O)CSc1nc2sc3c(c2c(=O)n1-c1ccccc1C)CC(C)(C)OC3 | inactive: 73%
Cc1ccccc1NC(=O)c1sc2nc3n(c(=O)c2c1C)CCC3 | inactive: 78%
CCc1ccc(NS(=O)(=O)c2cc(-c3cnc(C4CC4)o3)ccc2C)cc1 | inactive: 116%
Cc1oc(-c2ccc(C(=O)NCCC(C)C)cc2)nc1CN1CCc2ccccc21 | inactive: 95%
COc1ccccc1CNC(=O)CC(c1ccc(C)cc1)N1Cc2ccccc2C1=O (stereo unspecified) | inactive: 67%
Cc1cc(C)cc(-n2ccn(Cc3ccccc3C)c(=O)c2=O)c1 | inactive: 69%
O=C(CCC1CCCC1)NCc1ccco1 | inactive: 71%
Cc1nc(C)c(C(=O)O)o1 | inactive: 89%
COc1ccc2c(c1)Cc1sc(NC(=O)c3cccc(C)c3)nc1-2 | active: 18%
O=C(c1cc2nc(-c3ccco3)cc(C(F)(F)F)n2n1)N1CCCc2ccccc21 | inactive: 117%
COc1ccc(S(=O)(=O)c2c(C(=O)c3ccc(C)c(C)c3)cnc3ccc(F)cc23)cc1 | inactive: 80%
CC(C)c1ccc(OCC(=O)Nc2c(C(=O)c3ccc(F)cc3)oc3ccccc23)cc1 | active: 65%
Cc1ccc(-n2nnc(-c3nc(-c4cccs4)no3)c2N)c(C)c1 | inactive: 101%
Cc1nonc1OCCN1CCN(c2cnn(-c3ccccc3)c(=O)c2Cl)CC1 | inactive: 88%
CN1C(=O)/C(=C\C2(C)N3CC4(C)CN2CC(C)(C3)C4=O)c2ccccc21 (stereo unspecified) | inactive: 69%
CC(C)(C)NC(=O)CSc1nc2ccccc2c(=O)[nH]1 | inactive: 105%
Cc1c(C)n(C)c2ccc(C(=O)NCc3cccc(F)c3)cc12 | inactive: 72%
COc1cc2c(cc1NC(=O)COc1ccc(Cl)cc1Br)oc1ccccc12 | inactive: 51%
CCOC(=O)CSc1nnc2n(-c3ccccc3)c(=O)c3c4c(sc3n12)CC(C(C)(C)C)CC4 (stereo unspecified) | active: 46%

SMILES | survival
O=C(NCC1CC1)C1C2C3C4CC5C3C5C4C12 (stereo unspecified) | inactive: 93%
Cc1cccc(C)c1NC(=O)CS(=O)CC(=O)Nc1ccc(F)c(F)c1 (stereo unspecified) | inactive: 93%
COc1ccccc1CNC(=O)Cn1ncn2c(cc3sccc32)c1=O | inactive: 70%
Cc1ccc(Nc2c(-c3ccsc3)nc3c(C)cccn23)cc1 | active: 20%
COc1ccc(S(=O)(=O)NCc2cccn2Cc2cccc(C)c2)cc1 | inactive: 84%
CCCCCSc1nc2sc3c(c2c(=O)n1-c1ccc(OC)cc1)CCN(C(C)=O)C3 | active: -18%
COc1ccccc1NC(=O)CC(c1cc(OC)c(OC)c(OC)c1)N1Cc2ccccc2C1=O (stereo unspecified) | inactive: 80%
Clc1ccc(C(c2ccccc2)c2c[nH]c3ccccc23)s1 (stereo unspecified) | active: -3%
Cc1ccc2[nH]c3c(=O)n(CC(=O)N4CCCCC4)ncc3c2c1 | inactive: 84%
Cc1ccc(C)n1-c1nnc(N2CCCC(C(=O)NCc3cccc(F)c3)C2)s1 (stereo unspecified) | inactive: 82%
COc1ccc(OC)c(CNC(=O)C2CCN(c3nc4ccccc4nc3C(F)(F)F)CC2)c1 | inactive: 106%
CCc1ccccc1Nc1nc2ccccc2c2nncn12 | inactive: 58%
CCc1ccc(S(=O)(=O)c2cn(Cc3ccccc3)c3cc(F)c(F)cc3c2=O)cc1 | inactive: 74%
Cc1ccc(-n2nc(CO)c(C(=O)NCc3cccnc3)n2)cc1 | inactive: 90%
COc1cc(OC)cc(-c2cc3nc(C)c(CCC(=O)NCc4ccc(Cl)cc4)c(C)n3n2)c1 | inactive: 113%
O=C(COc1cccc(-n2cnnn2)c1)N1CCOCC1 | inactive: 81%
Cc1cccc(N2CCN(C(=O)Cn3ncc4c5ccccc5n(C)c4c3=O)CC2)c1C | inactive: 73%
COc1ccc(C(=O)Nc2ccc(-n3nncc3-c3ccccc3)cc2)cc1OC | inactive: 123%
Cc1cc2oc(=O)cc(C)c2c2occ(-c3ccc(Cl)cc3)c12 | inactive: 72%
COc1ccc2nc(NC(=O)c3nc(SC(C)C)ncc3Cl)sc2c1 | inactive: 93%
CCC(=O)N1CCc2cc(Br)cc(S(=O)(=O)CCC(=O)N3CCN(c4ccccc4F)CC3)c21 | inactive: 80%
O=C(NC1CCCC1)c1cc(Nc2cccc(C(F)(F)F)c2)nc2ccccc12 | inactive: 77%

From PubChem BioAssay AID463173 (ICCB-Longwood Screening Facility, Harvard Medical School, 2010)
